In the BET-seq Pho4 binding data (Le et al. 2018):
The other results are listed elsewhere or left out. The energies were worked out here from pooled read counts, against the library average; single values are noisy.

Target: T1, Pho4 (S. cerevisiae) (UniProt P07270)
T1 sequence: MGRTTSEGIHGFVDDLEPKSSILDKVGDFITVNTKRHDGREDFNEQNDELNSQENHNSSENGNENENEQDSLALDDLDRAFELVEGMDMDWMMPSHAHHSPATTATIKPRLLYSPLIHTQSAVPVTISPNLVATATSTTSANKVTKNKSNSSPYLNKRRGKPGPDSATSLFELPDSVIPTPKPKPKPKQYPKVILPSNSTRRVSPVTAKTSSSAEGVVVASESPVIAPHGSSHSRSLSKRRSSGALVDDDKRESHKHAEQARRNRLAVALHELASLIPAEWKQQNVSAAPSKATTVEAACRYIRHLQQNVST
Experiment: relative binding free energy (BET-seq); higher = weaker binding
Settings: reference: library average

Relative binding free energy, 0.36 kcal/mol:
TGTTTCACGTGAAGTA

Relative binding free energy, -0.07 kcal/mol:
GTATGCACGTGGGTAT
ACGTGCACGTGTGCGA

Relative binding free energy, -0.11 kcal/mol:
ATTAGCACGTGCTTAT
AGGAGCACGTGGCGAG
TTAGACACGTGCAGTT
AAATACACGTGGGTAG
GGTGCCACGTGGAGGC
ATTGTCACGTGCTATA

Relative binding free energy, -0.15 kcal/mol:
CGCTGCACGTGGGTTT

Relative binding free energy, 0.31 kcal/mol:
GGTTTCACGTGACTGT

Relative binding free energy, -0.35 kcal/mol:
GGAGCCACGTGGGGTA

Relative binding free energy, 0.2 kcal/mol:
TTCTTCACGTGCTAGG
AGGCTCACGTGGAGTA
AAATTCACGTGTTCTT
AGAGTCACGTGTGGAT
AAGTGCACGTGAGGTC
TTTTACACGTGACTTT
AGCTGCACGTGATTGA

Relative binding free energy, 0.4 kcal/mol:
GTTTTCACGTGTCTTT

Relative binding free energy, -0.01 kcal/mol:
CAGGTCACGTGCGGGG
ATGCGCACGTGTCAGG

Relative binding free energy, 0.48 kcal/mol:
GTGATCACGTGATTGT

Relative binding free energy, -0.09 kcal/mol:
TGGGGCACGTGTGACG
TTTGGCACGTGGTTGT
TTTTCCACGTGGGAGT
TTGCGCACGTGCGGGT
CAGGGCACGTGATAGG
CTGTCCACGTGGGAGG
TCGGGCACGTGGCAGT
GACGGCACGTGGGGGT

Relative binding free energy, -0.16 kcal/mol:
TATGGCACGTGACGGT
GTTGGCACGTGTGCAT

Relative binding free energy, 0.04 kcal/mol:
ATTTGCACGTGTTGGC
ATATTCACGTGCTTTT
TTGTGCACGTGTTACA
ATTAGCACGTGTAGTA
AAATGCACGTGTGGTG
GTGTACACGTGGTTCT
GATTACACGTGGGCGG

Relative binding free energy, -0.06 kcal/mol:
TTCGGCACGTGTCTTT
TTGGGCACGTGATTGC
TACTGCACGTGGGAGG
AGTGGCACGTGACGGT
GAAAGCACGTGGGATT

Relative binding free energy, 0.07 kcal/mol:
CGAGCCACGTGTGGTT
TTTTACACGTGGATTG
TGTTACACGTGGCGGA
TCAGGCACGTGAGGCG
GGGTGCACGTGTCGAG

Relative binding free energy, 0.49 kcal/mol:
GGTTTCACGTGAAGAC

Relative binding free energy, 0.06 kcal/mol:
TAGTACACGTGTGTTT
TTCGTCACGTGGTACT
ATTGTCACGTGTGTGG
GAATGCACGTGGCATG
GTTAACACGTGTATGC
CTTCGCACGTGTTTTA

Relative binding free energy, 0.15 kcal/mol:
GTTGTCACGTGTGCCA
GGTAGCACGTGTCGGT

Relative binding free energy, -0.28 kcal/mol:
AGGCGCACGTGCGGGG

Relative binding free energy, 0.12 kcal/mol:
TGTTGCACGTGACTCG
CGTATCACGTGGCTGG
GAAGTCACGTGTTTTT

Relative binding free energy, 0.14 kcal/mol:
TGTATCACGTGTATGT
ATATTCACGTGGTCGT
GTTTACACGTGGACTT
GGTGTCACGTGGGAAC
ATGTGCACGTGAACTT

Relative binding free energy, 0.38 kcal/mol:
AGTTGCACGTGAGTTC
GTAGTCACGTGAGCTT

Relative binding free energy, -0.26 kcal/mol:
TTGGCCACGTGGGTAT

Relative binding free energy, -0.21 kcal/mol:
AAGGCCACGTGTTTGG
TTAGGCACGTGCTGAG

Relative binding free energy, 0.24 kcal/mol:
AGGGTCACGTGAACTG
AGCGTCACGTGAGGGT
GGAGACACGTGGAATT
AAGTTCACGTGTAATG
ATACTCACGTGTTGTG
TGAATCACGTGCAGTT
AATTGCACGTGAGGGT
AGTTTCACGTGGTGTG
AAAGACACGTGTAGAG

Relative binding free energy, -0.08 kcal/mol:
AATGGCACGTGTCTAG
TCGTGCACGTGGCGGC
TTTCACACGTGCTTGT
AGCGGCACGTGGTGCG
GATAGCACGTGTTATG
ATGTCCACGTGGGATG
TTTGCCACGTGTTCGG
GTAAGCACGTGGTGCG

Relative binding free energy, -0.04 kcal/mol:
CTGTACACGTGGAGGG
AAATGCACGTGGTTGG
AGATGCACGTGTCTGG
TTGTGCACGTGGGATC
ATGGCCACGTGGAAGG

Relative binding free energy, -0.22 kcal/mol:
TAGCGCACGTGGGTTA
TCGGGCACGTGGCGAG
CAAAGCACGTGGGGGA

Relative binding free energy, 0.43 kcal/mol:
TCGTTCACGTGTCTTG

Relative binding free energy, 0.08 kcal/mol:
TGGTGCACGTGTCGTT
GCGAGCACGTGTTGGT
TTTTACACGTGGTGCT
CAAATCACGTGTTGTT
TTAGTCACGTGCTCTG

Relative binding free energy, 0.22 kcal/mol:
GTATTCACGTGGAAGG
TTTTTCACGTGGGGAC
TGGGTCACGTGTCTTG
CGGATCACGTGCGTTG
GGAGTCACGTGTTCGA
ATATTCACGTGTTTTC

Relative binding free energy, 0.1 kcal/mol:
GATGGCACGTGGACTT
AATGTCACGTGAGTCG

Relative binding free energy, -0.23 kcal/mol:
GCGGGCACGTGGGCGG
TTTGGCACGTGGTGAC
TTAAGCACGTGGTCTG
TAGTGCACGTGGGTCA
TCGGGCACGTGGTCGA

Relative binding free energy, 0.16 kcal/mol:
TATGGCACGTGAGGTT
TTTCTCACGTGTGTCA
TTGATCACGTGGTGCC
GTGAACACGTGTAATA

Relative binding free energy, 0.26 kcal/mol:
ATTCTCACGTGAGTGG
GTGGCCACGTGAGCTG
ATTTTCACGTGATACT

Relative binding free energy, 0.09 kcal/mol:
AGTTGCACGTGACGTG
CAGTGCACGTGTGGAA
ACAGTCACGTGTGGTT
CTTGACACGTGTTTTA
GTGGTCACGTGGATCG
TTCCACACGTGGTGTA

Relative binding free energy, 0.19 kcal/mol:
AGGAGCACGTGAGTTG

Relative binding free energy, 0.01 kcal/mol:
GTGGACACGTGGGAAA
ATGGCCACGTGACGGG
GTTGACACGTGGTTAT
ATAAACACGTGAGGTG
TGGGTCACGTGCCGGA
TGTGACACGTGCTCTT
TGTAGCACGTGTGGGG

Relative binding free energy, -0.02 kcal/mol:
GGCTGCACGTGGTCTG
TGTGGCACGTGTAGCA
GATGGCACGTGTCGCG
CATATCACGTGTATTT
GCGGTCACGTGGTCGG
AGTAACACGTGCGGGG
CTGAGCACGTGTGTAT
GGGGACACGTGCGGCT

Relative binding free energy, 0.05 kcal/mol:
GGGACCACGTGTTAGT
GTGTCCACGTGTTGTT
TGGTACACGTGGATGG

Relative binding free energy, -0.25 kcal/mol:
ACAGCCACGTGGGTGG

Relative binding free energy, 0.25 kcal/mol:
TATCTCACGTGTTGAA
CGATCCACGTGTGTTT
GTAGACACGTGTGAAG

Relative binding free energy, -0.14 kcal/mol:
AGCGTCACGTGGGGCA
CTGGGCACGTGGGTTT
GTGGGCACGTGGGGGC

Relative binding free energy, -0.2 kcal/mol:
CGGTGCACGTGGGTGT
ATATGCACGTGGGATT
ATGGGCACGTGGGGTT

Relative binding free energy, 0.41 kcal/mol:
TAGCTCACGTGAGGGC

Relative binding free energy, 0.21 kcal/mol:
TTGTTCACGTGGAGCG
TTGTACACGTGTGCTT
GTAGTCACGTGGAAAG
CTCTGCACGTGAGTGG
CTGTACACGTGACGGG
AGTTTCACGTGCTAGT

Relative binding free energy, -0.03 kcal/mol:
CTCGGCACGTGAGTGG
TAGTCCACGTGTTGTG

Relative binding free energy, 0.13 kcal/mol:
GCAGTCACGTGCGGGG
GAAGGCACGTGATTAA
GCTGTCACGTGTTAAG
ATGTGCACGTGAGTCT
TGCTTCACGTGGGTGG

Relative binding free energy, 0.45 kcal/mol:
CGTCTCACGTGAGTTT

Relative binding free energy, -0.1 kcal/mol:
AAGAGCACGTGTGAGT
TTCTGCACGTGGGGCT
GTTAGCACGTGCGGTT
ATTGCCACGTGTGTGA

Relative binding free energy, 0.02 kcal/mol:
ATTTGCACGTGCTGTA
ATGTGCACGTGACTGG
CTGGGCACGTGTATGG
GCGTGCACGTGGGTTC
TTTCACACGTGGGATT

Relative binding free energy, 0.3 kcal/mol:
ATGTTCACGTGAGTGG
GAGGGCACGTGAATAG
CATATCACGTGTGGGG

Relative binding free energy, 0.34 kcal/mol:
GGTTTCACGTGTTAGG

Relative binding free energy, 0.11 kcal/mol:
GGAGACACGTGTCTGG
CCTGTCACGTGTGAGT
TGTTACACGTGTCTTG
AGAGTCACGTGCGTTG

Relative binding free energy, 0.17 kcal/mol:
GATGACACGTGTGTTT
CTATTCACGTGCTTGT
GGTGTCACGTGGAAGC
CGGTTCACGTGGGCAG

Relative binding free energy, 0.03 kcal/mol:
AATACCACGTGTTGGT
TGAGGCACGTGTAAGA
CGTGGCACGTGATCGG
ATGGTCACGTGGCTTA
GAAGTCACGTGGGGTT

Relative binding free energy, -0.05 kcal/mol:
TGTATCACGTGGGACT
TTGGGCACGTGCTGAC
TAGGACACGTGTCGTG
AGGACCACGTGGGTTT

Relative binding free energy, 0.53 kcal/mol:
AGTATCACGTGAAAGT

Relative binding free energy, 0.37 kcal/mol:
GGATTCACGTGGGCGA

Relative binding free energy, -0.19 kcal/mol:
ATCGACACGTGGGTGG

Relative binding free energy, 0.29 kcal/mol:
CGTTACACGTGTTTCT
GTCTTCACGTGGCAGG
GTGTTCACGTGGGAAG

Relative binding free energy, -0.18 kcal/mol:
AATAGCACGTGGGGAA
TGAAGCACGTGGTATA

Relative binding free energy, -0.12 kcal/mol:
ATGTCCACGTGGTGAG
TGTAGCACGTGGGGTT
TTTGCCACGTGCGTGA

Relative binding free energy, 0.32 kcal/mol:
GGGTGCACGTGAATGT

Relative binding free energy, 0.18 kcal/mol:
ATGATCACGTGTCAGG

Relative binding free energy, 0 kcal/mol:
TTTCACACGTGATGTA
TTGTACACGTGTGCGA
TTACGCACGTGATAGG
TTTTGCACGTGTCGTG
GGGGACACGTGTGTCA

Relative binding free energy, 0.33 kcal/mol:
ATGGTCACGTGTTCTC
ATGCTCACGTGAGGGA

Relative binding free energy, -0.45 kcal/mol:
ATACGCACGTGGGTGT

Relative binding free energy, -0.17 kcal/mol:
AGTGTCACGTGGGCTT
ATAGGCACGTGGGTGA
TCTAGCACGTGGTTAT
TGTAGCACGTGTAGGC

Relative binding free energy, -0.13 kcal/mol:
AGTTGCACGTGCATGT
